This is one part of the list.

The subject of this experiment is HSkMC (human skeletal muscle cells). Nature of the experiment: cytotoxicity call (relative viability < 0.9). Particulars: 10 µM.
Take `NC(=O)CSc1nc(N)cc(N)n1`: the cytotoxicity call was “inactive”.

On to `COc1ccc([C@@H]([C@H](Cc2ccccc2)OC(C)=O)N2C[C@@H](CC(=O)N(C)C)[C@@H]3C(=NO[C@H]3c3ccccc3)[C@@H]2Cc2ccccc2)cc1`, for which the cytotoxicity call was “inactive”.

For `C[C@H](CO)N1C[C@H](C)[C@H](CN(C)S(=O)(=O)c2cccs2)Oc2ccc(NS(=O)(=O)c3cccs3)cc2CC1=O`, the cytotoxicity call is “inactive”.

Consider `CCNC(=O)C[C@@H]1CC[C@H]2[C@@H](COC[C@@H](O)CN2S(=O)(=O)c2ccc(Oc3ccccc3)cc2)O1`, for which the cytotoxicity call was “inactive”.

As for `COc1ccc(NC(=O)Nc2ccc3c(c2)C(=O)N([C@H](C)CO)C[C@H](C)[C@H](CN(C)Cc2ccncc2)OCCCC[C@H](C)O3)cc1`, the cytotoxicity call is “inactive”.

Regarding `C[C@@H]1CN([C@@H](C)CO)C(=O)Cc2cc(NC(=O)CCC(F)(F)F)ccc2O[C@@H]1CN(C)S(C)(=O)=O`, the cytotoxicity call is “inactive”.

With `O=C(C[C@@H]1C=C[C@H](NC(=O)c2cccnc2)[C@@H](CO)O1)NCCN1CCCCC1`, the cytotoxicity call is “inactive”.

For `N=C1NCCC(C2NC(=O)C(=CNC(N)=O)NC(=O)C(CNC(=O)CC(N)CCCN)NC(=O)C(CO)NC(=O)C(N)CNC2=O)N1.O=S(=O)(O)O` (configuration not stated), the cytotoxicity call is “inactive”.

Take `NC(=O)c1ccnc(Cl)c1`: the cytotoxicity call is “inactive”.

As for `C[C@H](CO)N1C[C@H](C)[C@H](CN(C)C(=O)CCC(F)(F)F)OCCCC[C@H](C)Oc2ccc(NC(=O)Nc3ccccc3)cc2C1=O`, the cytotoxicity call was “inactive”.

Consider `O=C(C[C@@H]1CC=CCC[C@H](Cc2ccc(F)cc2)C(=O)OC[C@H](Cc2c[nH]c3ccccc23)NC1=O)N[C@@H](CO)Cc1ccccc1`, for which the cytotoxicity call was “inactive”.

Consider `CCCC(=O)Nc1ccc2c(c1)C(=O)N(C)[C@H]1CC[C@H](CC(=O)NCCN3CCCCC3)O[C@@H]1CO2`, for which the cytotoxicity call is “inactive”.

`COCC#Cc1cnc2c(c1)C(=O)N([C@H](C)CO)C[C@@H](C)[C@H](CN(C)C(=O)Nc1ccccc1OC)O2`: the cytotoxicity call was “inactive”.

Turning to `CCSc1ncnc(N)n1`, the cytotoxicity call is “inactive”.

For `C[C@H](CO)N1C[C@H](C)[C@H](CN(C)Cc2ccc(-c3ccccc3)cc2)Oc2ccc(NC(=O)Nc3ccc4c(c3)OCO4)cc2CC1=O`, the cytotoxicity call was “inactive”.

Turning to `Cc1ccc(-c2cnc3c(c2)C(=O)N([C@@H](C)CO)C[C@H](C)[C@@H](CN(C)C(=O)Cc2ccncc2)O3)cc1`, the cytotoxicity call was “inactive”.

Take `CC(=O)N1CCC(N)CC1`: the cytotoxicity call was “inactive”.

For `C[C@@H]1CN([C@H](C)CO)C(=O)c2cc(NC(=O)Nc3ccc(C(F)(F)F)cc3)ccc2O[C@H]1CN(C)Cc1ccccc1`, the cytotoxicity call is “active”.

On to `C[C@H]1CN([C@@H](C)CO)C(=O)c2cccc(NC(=O)Nc3ccc(C(F)(F)F)cc3)c2O[C@H]1CN(C)S(=O)(=O)c1ccc(F)cc1`, for which the cytotoxicity call was “inactive”.

With `CCC(=O)N(C)C[C@@H]1Oc2ncc(C#C[C@@H](C)O)cc2C(=O)N([C@H](C)CO)C[C@H]1C`, the cytotoxicity call was “inactive”.

Consider `C[C@@H]1CN([C@@H](C)CO)C(=O)CCCn2nncc2CO[C@@H]1CN(C)S(=O)(=O)c1ccc(-n2cccn2)cc1`, for which the cytotoxicity call is “inactive”.

`C[C@H](CO)N1C[C@H](C)[C@@H](CN(C)S(=O)(=O)c2ccccc2)Oc2ccc(NS(=O)(=O)c3cn(C)cn3)cc2C1=O`: the cytotoxicity call is “inactive”.

Consider `CCN(CC)C(=O)N1CCN(C)CC1.O=C(O)CC(O)(CC(=O)O)C(=O)O`, for which the cytotoxicity call was “inactive”.

As to `Cc1cc(C)c(-c2ccc(NC(=O)[C@H](Cc3ccc(C(=O)NCCS(=O)(=O)O)cc3)c3ccc(-c4ccc(C(C)(C)C)cc4)cc3)cc2)c(C)c1`, the cytotoxicity call is “active”.

On to `CNC(=O)CN(C#N)c1nc(C)cc(C)n1`, for which the cytotoxicity call was “inactive”.

`C[C@@H]1CCCCO[C@H](CN(C)C(=O)Nc2ccccc2)[C@H](C)CN([C@@H](C)CO)C(=O)c2cc(NC(=O)Nc3ccc(C(F)(F)F)cc3)ccc2O1`: the cytotoxicity call was “inactive”.

On to `IC(I)I`, for which the cytotoxicity call was “inactive”.

As for `C[C@@H]1CCCCO[C@@H](CN(C)Cc2ccc(C(=O)Nc3ccccc3N)cc2)[C@@H](C)CN([C@H](C)CO)C(=O)c2cc(NC(=O)NC3CCCCC3)ccc2O1`, the cytotoxicity call is “inactive”.

For `C[C@H](CO)N1C[C@H](C)[C@H](CN(C)CC2CCOCC2)Oc2cc(-c3cccnc3)ccc2S1(=O)=O`, the cytotoxicity call is “inactive”.

For `COc1ccc(S(=O)(=O)N(C)C[C@@H]2Oc3c(NS(=O)(=O)c4ccc(F)cc4)cccc3C(=O)N([C@H](C)CO)C[C@@H]2C)cc1`, the cytotoxicity call is “inactive”.

As for `COc1ccc(NC(=O)N(C)C[C@H]2Oc3ccc(NC(=O)Nc4cccc5ccccc45)cc3CC(=O)N([C@H](C)CO)C[C@H]2C)cc1`, the cytotoxicity call is “inactive”.

Take `C[C@H](CO)N1C[C@H](C)[C@@H](CN(C)C(=O)CCCN(C)C)OCCCC[C@H](C)Oc2ccc(NC(=O)Nc3cccc4ccccc34)cc2C1=O`: the cytotoxicity call was “inactive”.

For the origin of these results see the antibiotic and cytotoxicity screens of Wong et al. (2023).
